Test results taken from article PMC12136788.
The other results are listed elsewhere or left out.

B1: 28426260_28490093_4108_CDS_ENSG00000100154_ENST00000397906|human|control|control (ssRNA)
RNA: GGGAGUUCUACAGUCCGACGAUCGUCAGUGACCGAGUUGAGUUUGUUGUUCAUCUCUUCAAAUUGCUGGUCCAUGAUGUCUCCCGCUUCACUCUCUGUCUCACUGCUGGCACAGGCCCUUGAGUAGUGAGACUCCACCCCCAGCAACAGAGGAUUGAGCAUCA
B2: chr1:60041781:60041782:+_ENSMUSG00000041040_ENSMUST00000036540|mus_hu|mus_mus_mus_hu_False|8_108 (ssRNA)
RNA: GGGAGUUCUACAGUCCGACGAUCAAGAGGAGUGAAUUAAAGUAAAUGCAGUAGUGGCAAAUUUUCUUUUAUUUUCCUUCACAAAAGAAAAUCUUUAUAACCCAGUCCUAGUCUUGGACAUAGUGAAUCUCCAUGGGUCUGACUCAACAGAGGAUUGAGCAUCA
B3: chr5:138651791:138651792:+_ENSG00000015479_ENST00000502499|hu_mus|FALSE|FALSE (ssRNA)
RNA: GGGAGUUCUACAGUCCGACGAUCUCCUCCAAGAUGAAAUGAAGGAGGCGGCGGUCCCAGAAUCCCUGGUGCUGGGUUUGUAGACUGCUGCAGCAUGAAUGGAUCACCCAUUGUGUGUCCAGUAUCAUUGUCAGGAUUCCAUUCCAACAGAGGAUUGAGCAUCA
B4: 3419237_3424114_2893_CDS_ENSG00000159788_ENST00000382788|human|control|control (ssRNA)
RNA: GGGAGUUCUACAGUCCGACGAUCGCAGGCCUCCGACAGGUCCAGGCUCCCCGCAGAGGACACAGAGCCCUGCGACUCUCGGCGACACAGGCCUCCAUUGGCAUGCAGGGCGUCGUCUGCGUGGUCCCCGUGCUCCCUCUUUUUCAACAGAGGAUUGAGCAUCA
B5: chr8:30655213:30655214:-_ENSG00000104695_ENST00000221138|hu_mus|FALSE|FALSE (ssRNA)
RNA: GGGAGUUCUACAGUCCGACGAUCCACGUUGGCAUUUCCAUACUUCCGUAGGCACUCAUCAUAAAAGCCAUACACUUGUGUGAUCUGCCGGCUUUCGUGAUUUCCUCGCAAUAUUGUGAUGCGCUCUGGAUAGCGCACCUUUAACAACAGAGGAUUGAGCAUCA
B6: chr20:17587764:17587765:+_ENSG00000125868_ENST00000474024|hu_mus|FALSE|FALSE (ssRNA)
RNA: GGGAGUUCUACAGUCCGACGAUCGCACUGACUGGCGGUCUACACAGGGGAUCCUUCAAAGGCUACAAUUAAGGAGCCACCUAGCUUUUCAGCAAUACAGGUCCGAUUGAGGUCUUCUGGCCCAUUUGCUUGAUACUCAUGCUUCAACAGAGGAUUGAGCAUCA
B7: chr11:102151369:102151370:-_ENSMUSG00000059995_ENSMUST00000137387|mus_mus|FALSE|FALSE (ssRNA)
RNA: GGGAGUUCUACAGUCCGACGAUCUAUGCUUGGUAGUGGGGCCGGCCCGAGAACCUUCUUUCCCCCUCUAGCGAGAAGGCUAUGGAGGGCCAAGGACAGAGGGGCCCAGGCUCCAAGGAUUUAUUCUAACUCCUGCCAAAAUUACAACAGAGGAUUGAGCAUCA
B8: chr7:138189096:138189097:+_ENSG00000122779_ENST00000415680|hu_mus|FALSE|FALSE (ssRNA)
RNA: GGGAGUUCUACAGUCCGACGAUCAGACUUUUCUACUGUACUACUAGGAACUUCAGUGGUGUCCUUCACAAAAAAGUUGUCUAUGAUGUGUCUCUCAGCACACUCUUGACUGCAAACUGGGCAUCGAAUGACUCCAACUUGGGUCAACAGAGGAUUGAGCAUCA
B9: chr13:51246309:51246310:+_ENSMUSG00000021395_ENSMUST00000095797|mus_mus|FALSE|FALSE (ssRNA)
RNA: GGGAGUUCUACAGUCCGACGAUCUGCCUAUGAGAAAACACUGAGCACACAACGAUUGCAGCCAAGGACAGAACUGAGGUACUAUGUUCACAUGGUGAGCAGUUGUGACCACCCAGCAGUGUAAGGUGGUCAGCCUCUGUGAAACAACAGAGGAUUGAGCAUCA
B10: chr14:76904540:76904541:+_ENSMUSG00000022010_ENSMUST00000022587|mus_hu|FALSE|FALSE (ssRNA)
RNA: GGGAGUUCUACAGUCCGACGAUCAAAGAAAUUGAAAAAUGUCUCAGUUGGUAAACUCCUAGAUCCAUCGCCACUGGUCUACACCAUUGGGAUUUCAUGCAAUUGCAGCCAAAAACACCCUCGUGGAAAAAAAGAGGGAACACCCAACAGAGGAUUGAGCAUCA
B11: chr5:128440902:128440903:+_ENSG00000066583_ENST00000173527|hu_hu|FALSE|FALSE (ssRNA)
RNA: GGGAGUUCUACAGUCCGACGAUCUUGAACCGUGCUCCCAAGACCUUUAGGGUAUUGUUCUGUUACAAUAACAGGAAUUCCUAAAAUCCGGGCCCCUUGCAACAAUCUCUGUCCCACGCUAAUAAUAUCCCCAAAAUACUUGAUCAACAGAGGAUUGAGCAUCA
B12: chr17:21098601:21098602:+_ENSMUSG00000007564_ENSMUST00000007708|mus_mus|motif|central (ssRNA)
RNA: GGGAGUUCUACAGUCCGACGAUCGGCUAAGACCUUGGGGAUGAUAGUGGCAUGGGCCCACUCCUUCCCGAACUUCUCGGCGGAUUUCUUAAGGUUGCUGGUGGCAGCCUCACGGAUAGCAUAGACAUGAUCCACUAGCCAGGCCAACAGAGGAUUGAGCAUCA
B13: chr2:129036499:129036500:+_ENSMUSG00000027397_ENSMUST00000028880|mus_hu|FALSE|FALSE (ssRNA)
RNA: GGGAGUUCUACAGUCCGACGAUCGAAGAUUGCCAUGAUGGCAGCACUGAUAACUCCAGAAAUGGGGACUGUGACAAACCAGGCCAUAAAAAUGUUACGAAAGAGACGCCAGUCAACAGCCUUCUUGGACCGGAGCCAGCCAACCAACAGAGGAUUGAGCAUCA
B14: chr3:103125490:103125491:+_ENSMUSG00000033014_ENSMUST00000106860|mus_mus|FALSE|FALSE (ssRNA)
RNA: GGGAGUUCUACAGUCCGACGAUCAAGAAGCUUAGCCAACAGAUUUUCAAUUGCACCUUUCUGAUUUUGAAAAGCCUCUUCUAAAAACUGAUACCUAUGUUCUUUGUGCUCCAAAAGUUGACAGUCUCUACACGUCAAUCUAUCCAACAGAGGAUUGAGCAUCA

target: T1, UNK ZnF1-3 (human, UniProt Q9C0B0 31-174); assay: nsRBNS (natural sequence RNA bind-n-seq); RBNS binding buffer (assumed for nsRBNS): 25 mM Tris pH 7.5, 150 mM KCl, 3 mM MgCl2, 0.01% Triton X-100, 500 ug/ml BSA, 20 U/ml SUPERase-In, 4 C; UNK is unkempt and MSI1 is Musashi-1; names of the RNAs are library labels; protein concentration not given here; high values mean tight binding
T1 sequence: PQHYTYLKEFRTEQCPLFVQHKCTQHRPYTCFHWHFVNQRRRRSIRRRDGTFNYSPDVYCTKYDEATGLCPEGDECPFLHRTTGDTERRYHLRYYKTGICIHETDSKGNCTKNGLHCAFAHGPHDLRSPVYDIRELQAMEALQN

Binder	binding signal [enrichment R]
B1	0.598
B2	0.739
B3	0.768
B4	0.671
B5	0.467
B6	0.906
B7	0.46
B8	0.977
B9	0.849
B10	1.61
B11	1.03
B12	1.07
B13	1.81
B14	1.12
